Experimental data: PubChem BioAssay AID1159614 (National Center for Advancing Translational Sciences (NCATS), 2016)
The campaign covered roughly 45,000 compounds. About 65 (0.1%) were called active. Calls come from the whole dose curve; as a rule, active = well fitted activation curve with a large enough effect; inconclusive = small, poorly fitted or top-dose-only effect; inactive = no such curve, though single readings can be large or run the other way. Some of the results follow.

Molecular target: Galactocerebrosidase (Homo sapiens) (UniProt P54803)
Sequence of UniProt P54803 (P54803 whole entry, looked up): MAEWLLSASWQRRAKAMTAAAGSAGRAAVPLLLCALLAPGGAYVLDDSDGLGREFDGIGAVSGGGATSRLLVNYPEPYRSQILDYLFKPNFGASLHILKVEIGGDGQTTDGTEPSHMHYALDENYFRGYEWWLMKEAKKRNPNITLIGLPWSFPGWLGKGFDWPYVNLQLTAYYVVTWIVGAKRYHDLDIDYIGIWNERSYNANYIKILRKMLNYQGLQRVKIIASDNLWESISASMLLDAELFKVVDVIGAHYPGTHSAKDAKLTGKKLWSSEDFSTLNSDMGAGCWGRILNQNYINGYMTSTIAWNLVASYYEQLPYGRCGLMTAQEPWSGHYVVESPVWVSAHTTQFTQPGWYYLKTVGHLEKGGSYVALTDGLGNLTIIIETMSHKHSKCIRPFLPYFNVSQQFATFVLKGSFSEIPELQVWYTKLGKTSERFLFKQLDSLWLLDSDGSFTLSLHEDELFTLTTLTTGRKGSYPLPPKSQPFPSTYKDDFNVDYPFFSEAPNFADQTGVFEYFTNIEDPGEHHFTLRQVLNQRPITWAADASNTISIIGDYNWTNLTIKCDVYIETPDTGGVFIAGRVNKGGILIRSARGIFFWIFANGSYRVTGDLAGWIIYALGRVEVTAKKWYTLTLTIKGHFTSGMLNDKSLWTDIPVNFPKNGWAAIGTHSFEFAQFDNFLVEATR
Assay: A Novel Cell-Based Assay to Identify Small Molecules for B -Galactocerebrosidase; note: 0% is about no effect; nearly all actives have a fitted effect of over 65% in size
Settings: 145M-Twi-hGALC-G270D cells (Twitcher mouse brain line with human GALC G270D), HMU-beta-Gal fluorescence, 48 h; series mostly up to 57.5 µM; activation: at the top concentration
Outline: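 Brain-derived Twitcher mouse 145M-Twi cells stably expressing human GALC-G270D or wild-type GALC, treated live, then residual GALC activity read by fluorescence of HMU-b-Gal substrate (0.1 mM final) in citrate-phosphate buffer pH 5.2 with sodium taurocholate. Signal increase indicates enhancement.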

activation, inactive:
CCCCCNC(=O)c1c[nH]c2ccc(S(=O)(=O)N3CCC(C)CC3)cc2c1=O -10.9%
CCC1CN(C(=O)NCc2ccc(C)cc2)c2cc(C)ccc2O1 (stereo not given) -10.6%
CCc1ccccc1NC(=O)C1(S(=O)(=O)c2ccc(Cl)cc2)CC1 -11.3%
COc1ccc(-c2nsc(NC(=O)COc3ccc(C)c(C)c3)n2)cc1 5.3%
Cc1ccc(OCC(=O)Nc2ccc(Cl)c(-c3nc4ncccc4o3)c2)cc1C -4.61%
Cc1cc(C)cc(NC(=O)CN2C(=O)CSc3ccc(S(=O)(=O)N(C)C)cc32)c1 -4.1%
CCOC(=O)c1c(C)oc2ncnc(Nc3ccc(F)cc3Cl)c12 -9.25%
Cc1ccc(C)c(N2CCN(C(=O)c3cc4ccc5cccnc5c4[nH]3)CC2)c1 -7.12%
COc1ccc(CNC(=O)c2cc3c(=O)[nH]c4ccc(C)cc4c3s2)c(OC)c1 -21.7%
COc1ccc(CCNC(=O)c2cc(-c3ccc(C)cc3)nc3n[nH]c(-c4ccccc4)c23)cc1OC -11.1%
COc1ccc(OC)c(NC(=O)CCn2cnnn2)c1 -1.3%
COc1cc(C(=O)Nc2nnc(S(=O)(=O)N(C)c3ccccc3)s2)cc(OC)c1OC -15.1%
Cc1ccc(CN2C(=O)c3ccccc3Sc3ccc(C(=O)NC4CCCCC4)cc32)cc1 -4.17%
COc1ccc(-c2oc3ncn4nc(-c5cccc(C)c5)nc4c3c2-c2ccc(OC)cc2)cc1 -11.7%
COc1ccccc1CNC(=O)CS(=O)(=O)c1cccc2nsnc12 -7.82%
Cc1ccc(-c2nc3n(n2)C(c2ccccc2C)C=C(c2ccc(Cl)cc2)N3)cc1 (stereo not given) -0.743%
COc1cc(C(=O)NCC(c2ccc(N(C)C)cc2)N2CCc3ccccc32)cc(OC)c1OC (stereo not given) -12%
COc1ccc(CNC(=O)C2CCN(c3nc4ccccc4[nH]3)CC2)c(OC)c1 -17.7%
CN1CCN(C(c2ccccc2)c2ccccc2)CC1 -13.4%
COc1cc(CN(C(=O)COc2ccc(Br)cc2)c2ccccn2)cc(OC)c1OC -36.2%
O=C(NC1CC(=O)N(c2ccc(F)cc2)C1)c1cccs1 (stereo not given) -8.93%
O=C(CSc1ncc(CO)n1Cc1ccccc1)Nc1nc2ccccc2s1 -40.8%
Cc1ccn2c(Nc3ccc(F)cc3)c(-c3ccc(C)o3)nc2c1 -11.6%
COC(=O)[C@@H]1CC2=CC(=O)CC[C@]2(C)[C@@]23O[C@@H]2C[C@@]2(C)[C@@H](CC[C@@]24CCC(=O)O4)[C@H]13 -16.7%
Cc1nn(C(=O)c2ccc(Cl)cc2)c(C)c1Sc1ccc(Cl)cc1 -9.45%
CC(=O)c1sc2c(c1C)c(=O)n(-c1ccc(Cl)cc1)c(=O)n2Cc1cc(=O)n2cc(Cl)ccc2n1 -9.84%
CCCCOc1ccc(OC(=O)c2sc3ncn(Cc4cccc(F)c4)c(=O)c3c2C)cc1 -9.91%
COc1cc2nc(SCc3ccc(Cl)cc3)n3nc(CCn4nc(C)cc4C)nc3c2cc1OC 0.517%
CCCSc1nc2sc3c(c2c(=O)n1-c1ccccc1)CCC(C)C3 (stereo not given) 3.54%
Cc1cc(NC(=O)CSc2nc(-c3ccccc3F)nc3c2c(=O)n(C)c(=O)n3C)no1 -17.6%
Cc1oc2c(c1C(=O)NCc1cccc(Br)c1)C1=NCCN1C=N2 -3.11%
COc1cc(NC(=O)C(CC(C)C)NS(=O)(=O)c2ccc3c(c2)CCCC(=O)N3)cc(OC)c1 (stereo not given) 3.01%
Cc1ccc(CNC(=O)CCCn2c(=O)c3ccccc3n(CC(=O)C(C)(C)C)c2=O)cc1 -1.49%
CCOC(=O)Cn1c(=O)n(CC2CCCO2)c2nc(-c3ccc(OC)cc3OC)nc(C(N)=O)c21 (stereo not given) -20.1%
COc1cccc(NC(=O)c2sc3nc(N4CCOCC4)c4c(c3c2N)CC(C)(C)OC4)c1 -26.8%
Cc1cccc(NC(=O)NCCn2c(=O)oc3ccc(C)cc32)c1 -20.1%
COc1cccc(NC(=O)Cn2cc(C(=O)C3CCCCC3)c3ccccc32)c1 -11.6%
CCOC(=O)c1c(NC(C)=O)c2c3c(sc2n1Cc1nc(-c2ccccc2OCC)oc1C)CCCC3 -9.33%
Cc1ccc(/C=C(\C#N)C(=O)Nc2cc(C)ccc2C)cc1 -16.3%
Cc1ccc(C)c(N2CCN(C(=O)c3cnc4c(-c5ccccc5)c(C)nn4c3C)CC2)c1 -3.57%
Cc1ccc(C)c(CN2C(=O)c3ccccc3S(=O)c3ccc(C(=O)NCc4ccccc4Cl)cc32)c1 (stereo not given) -5.26%
COc1cc(C)c(Cl)cc1S(=O)(=O)NCCc1c(C)[nH]c2ccccc12 -10.9%
COc1cccc(CNC(=O)CN2C(=O)N(c3cc(C)ccc3C)S(=O)(=O)c3ccccc32)c1OC -6.61%
COc1ccc2oc(=O)c(-c3csc(/C(C#N)=C/c4ccc(F)cc4)n3)cc2c1 -5.81%
COc1ccc(CNC(=O)CN(c2ccc(C)cc2)S(=O)(=O)c2c(C)n[nH]c2C)cc1 2%
CCOc1ccc(NC(=O)Cn2c(=O)n(-c3ccc(C)cc3)c(=O)c3cc(OC)c(OC)cc32)cc1 -14.6%
COc1ccccc1N1CCN(C(=O)C2CCN(S(=O)(=O)c3cnc[nH]3)CC2)CC1 -11.7%
COc1ccc(CNC(=O)c2cc3c(-c4ccccc4F)nn(C)c3s2)c(OC)c1 -9.21%
Brc1ccccc1-n1ncc2c1ncn1nc(Cc3ccccc3)nc21 0.339%
O=c1cc(CSc2ncn[nH]2)[nH]c2c(Cl)cccc12 5.25%
Cc1ccc2c(c1)N(C(=O)CCC(=O)Nc1ccccc1Cl)CC(C)O2 (stereo not given) -2.48%
O=C(Nc1ccc(-c2cc(C(F)(F)F)nn2-c2ccccc2)cc1)c1cccc(F)c1 -40.7%
CCN1CCC(N(Cc2cccc(OC)c2)C(=O)Nc2cccc(C(F)(F)F)c2)CC1 -6.16%
CCN(CC)c1ccc(C(=O)NCc2ccc3c(c2)CCN3C(=O)c2ccccc2)cc1 -10.4%
CCOc1ccc(C2c3c(-c4ccc(C)cc4)n[nH]c3C(=O)N2c2ccc(Cl)cc2)cc1 (stereo not given) -8.35%
CC1CCCN(C(=O)Cn2c(=O)oc3cc(S(=O)(=O)N4CCCCC4)ccc32)C1 (stereo not given) -23.2%
COc1ccc(OC)c(Nc2nc(-c3ccc(C)cc3)nc3ccccc23)c1 -23.2%
O=C(CC1N=C2c3ccccc3N=C(SCc3ccc(Cl)cc3)N2C1=O)NCCc1ccccc1 (stereo not given) -26.4%
CCOC(=O)c1c(C)[nH]c(C)c1S(=O)(=O)NCC(=O)Nc1cccc(C(F)(F)F)c1 -8.96%
O=C(CSc1nnc(NC(=O)NC2CCCCC2)s1)Nc1ccccc1F -9.65%
